This note sets out measurements from the supplement of paper PMC10369915.

Some of the results follow. Cut-off read from the data, not from the text of the source: active = 3.2 or more and inactive = the rest. Only a few entries rise above the background.
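Note: displayed peptides selected on beads carrying the immobilized SH2 domain, with library peptides lacking any tyrosine serving as negative controls.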

The first test deals with SHP2 C-SH2 domain E139D. Kind of test: enrichment score (SH2-bound / input frequency) (ratio); bacterial display of known human phosphotyrosine sites (pTyr-Var adds point mutants) read by sequencing; higher = stronger binding; tyrosines were phosphorylated by kinases first. The note with it: peptide library: pTyr-Var.
NPSFNYEIVNR [DYNC1H1_Y3379_YF]: the enrichment score is inactive: 0.812.

Take INSLKYAFNIS [EIF2B5_Y583_YF]: the enrichment score was inactive: 1.11.

As for GSERDYTYDEL [EIF2S2_Y174_E177D], the enrichment score was inactive: 0.411.

Consider YADGVYLALEE [DUOX2_Y70_Q71L], for which the enrichment score is inactive: 0.789.

Take NPSYNYEIVNQ [DYNC1H1_Y3379_R3384Q]: the enrichment score was inactive: 0.399.

Regarding YEPDAYDDLDQ [ELP5_Y302], the enrichment score is inactive: 0.375.

In the case of ILDEAYVMASV [EGFR_Y764], the enrichment score is inactive: 0.649.

For EKLQKYFRKNP [EHHADH_Y682_Q685K_YF], the enrichment score is inactive: 0.912.

On to MMVGAYSTLEG [ECPAS_Y470], for which the enrichment score was inactive: 0.817.

On to YLGRDYLETLM [DUS3L_Y610], for which the enrichment score was inactive: 1.02.

With IKNSGYISRYL [EIF2AK3_Y585], the enrichment score was inactive: 1.42.

As for FNVLQYVVPEV [EIF3A_Y382], the enrichment score is inactive: 1.73.

In the case of FGSVDCWEKFF [EEF1AKNMT_Y16_Y16C], the enrichment score was inactive: 1.62.

Take QWQQLYDTLNA [EIF3M_Y351]: the enrichment score is inactive: 0.798.

In the case of ADSLRYIYPKL [EIF2B3_Y92], the enrichment score was inactive: 0.978.

Regarding IRGNMYYENSY [EGFR_Y112], the enrichment score is inactive: 1.17.

As to GKSHIYFWTLD [EML2_Y230_E235D], the enrichment score was inactive: 1.4.

TNQVIYLNPPI [DYNC1H1_Y970]: the enrichment score was inactive: 1.05.

Regarding GLPQTYCVSGP [DYSF_Y1684], the enrichment score is inactive: 0.845.

A further test addresses SHP2 C-SH2 domain wild-type. Described as above. The conditions noted are these: peptide library: pTyr-Var.
In the case of NPSFNYEIVNR [DYNC1H1_Y3379_YF], the enrichment score is inactive: 0.716.

Regarding INSLKYAFNIS [EIF2B5_Y583_YF], the enrichment score was inactive: 0.939.

Take GSERDYTYDEL [EIF2S2_Y174_E177D]: the enrichment score was inactive: 0.479.

Consider YADGVYLALEE [DUOX2_Y70_Q71L], for which the enrichment score is inactive: 0.795.

For NPSYNYEIVNQ [DYNC1H1_Y3379_R3384Q], the enrichment score was inactive: 0.419.

As for YEPDAYDDLDQ [ELP5_Y302], the enrichment score is inactive: 0.499.

ILDEAYVMASV [EGFR_Y764]: the enrichment score was inactive: 0.895.

Consider EKLQKYFRKNP [EHHADH_Y682_Q685K_YF], for which the enrichment score is inactive: 0.897.

As to MMVGAYSTLEG [ECPAS_Y470], the enrichment score was inactive: 1.28.

On to YLGRDYLETLM [DUS3L_Y610], for which the enrichment score is inactive: 1.43.

Consider IKNSGYISRYL [EIF2AK3_Y585], for which the enrichment score is inactive: 1.11.

Take FNVLQYVVPEV [EIF3A_Y382]: the enrichment score is inactive: 1.52.

Turning to FGSVDCWEKFF [EEF1AKNMT_Y16_Y16C], the enrichment score is inactive: 1.66.

For the molecule QWQQLYDTLNA [EIF3M_Y351], the enrichment score is inactive: 0.677.

In the case of ADSLRYIYPKL [EIF2B3_Y92], the enrichment score was inactive: 1.34.

With IRGNMYYENSY [EGFR_Y112], the enrichment score was inactive: 0.972.

For GKSHIYFWTLD [EML2_Y230_E235D], the enrichment score was inactive: 1.12.

Regarding TNQVIYLNPPI [DYNC1H1_Y970], the enrichment score was inactive: 1.16.

GLPQTYCVSGP [DYSF_Y1684]: the enrichment score was inactive: 0.843.

The next test has as its target SHP2 N-SH2 domain L43F. The test is described as above. The note with it: peptide library: pTyr-Var.
Regarding NPSFNYEIVNR [DYNC1H1_Y3379_YF], the enrichment score is inactive: 0.831.

On to INSLKYAFNIS [EIF2B5_Y583_YF], for which the enrichment score was inactive: 1.01.

Consider GSERDYTYDEL [EIF2S2_Y174_E177D], for which the enrichment score is inactive: 0.527.

On to YADGVYLALEE [DUOX2_Y70_Q71L], for which the enrichment score was inactive: 0.995.

NPSYNYEIVNQ [DYNC1H1_Y3379_R3384Q]: the enrichment score is inactive: 0.426.

Turning to YEPDAYDDLDQ [ELP5_Y302], the enrichment score is inactive: 0.569.

Take ILDEAYVMASV [EGFR_Y764]: the enrichment score is inactive: 0.797.

For the molecule EKLQKYFRKNP [EHHADH_Y682_Q685K_YF], the enrichment score was inactive: 0.667.

Turning to MMVGAYSTLEG [ECPAS_Y470], the enrichment score is inactive: 1.35.

YLGRDYLETLM [DUS3L_Y610]: the enrichment score was inactive: 0.993.

With IKNSGYISRYL [EIF2AK3_Y585], the enrichment score is inactive: 1.04.

On to FNVLQYVVPEV [EIF3A_Y382], for which the enrichment score is active: 4.42.

Regarding FGSVDCWEKFF [EEF1AKNMT_Y16_Y16C], the enrichment score is inactive: 1.73.

In the case of QWQQLYDTLNA [EIF3M_Y351], the enrichment score was inactive: 0.663.

Consider ADSLRYIYPKL [EIF2B3_Y92], for which the enrichment score was active: 5.52.

On to IRGNMYYENSY [EGFR_Y112], for which the enrichment score was inactive: 0.897.

GKSHIYFWTLD [EML2_Y230_E235D]: the enrichment score is inactive: 0.94.

With TNQVIYLNPPI [DYNC1H1_Y970], the enrichment score is inactive: 0.975.

Turning to GLPQTYCVSGP [DYSF_Y1684], the enrichment score was inactive: 0.965.

For a further test, the target named is SHP2 N-SH2 domain T42A. The test is described as above. The conditions noted are these: peptide library: pTyr-Var.
Turning to NPSFNYEIVNR [DYNC1H1_Y3379_YF], the enrichment score is inactive: 0.795.

In the case of INSLKYAFNIS [EIF2B5_Y583_YF], the enrichment score is inactive: 0.758.

On to GSERDYTYDEL [EIF2S2_Y174_E177D], for which the enrichment score was inactive: 0.447.

YADGVYLALEE [DUOX2_Y70_Q71L]: the enrichment score is inactive: 0.823.

On to NPSYNYEIVNQ [DYNC1H1_Y3379_R3384Q], for which the enrichment score is inactive: 0.404.

For YEPDAYDDLDQ [ELP5_Y302], the enrichment score was inactive: 0.401.

For the molecule ILDEAYVMASV [EGFR_Y764], the enrichment score was inactive: 0.691.

EKLQKYFRKNP [EHHADH_Y682_Q685K_YF]: the enrichment score is inactive: 0.752.

With MMVGAYSTLEG [ECPAS_Y470], the enrichment score was inactive: 1.99.

Take YLGRDYLETLM [DUS3L_Y610]: the enrichment score is inactive: 1.01.

IKNSGYISRYL [EIF2AK3_Y585]: the enrichment score was inactive: 1.11.

Consider FNVLQYVVPEV [EIF3A_Y382], for which the enrichment score was active: 5.67.

As for FGSVDCWEKFF [EEF1AKNMT_Y16_Y16C], the enrichment score was inactive: 1.61.

On to QWQQLYDTLNA [EIF3M_Y351], for which the enrichment score was inactive: 0.701.

Consider ADSLRYIYPKL [EIF2B3_Y92], for which the enrichment score is active: 4.5.

Regarding IRGNMYYENSY [EGFR_Y112], the enrichment score was inactive: 1.09.

With GKSHIYFWTLD [EML2_Y230_E235D], the enrichment score was inactive: 0.879.

On to TNQVIYLNPPI [DYNC1H1_Y970], for which the enrichment score was inactive: 3.01.

GLPQTYCVSGP [DYSF_Y1684]: the enrichment score was inactive: 0.709.

Another test addresses SHP2 N-SH2 domain T52S. The test is described as above. The conditions noted are these: peptide library: pTyr-Var.
Take NPSFNYEIVNR [DYNC1H1_Y3379_YF]: the enrichment score was inactive: 0.681.

As for INSLKYAFNIS [EIF2B5_Y583_YF], the enrichment score was inactive: 0.872.

Regarding GSERDYTYDEL [EIF2S2_Y174_E177D], the enrichment score is inactive: 0.399.

Regarding YADGVYLALEE [DUOX2_Y70_Q71L], the enrichment score is inactive: 0.914.

For the molecule NPSYNYEIVNQ [DYNC1H1_Y3379_R3384Q], the enrichment score is inactive: 0.562.

As to YEPDAYDDLDQ [ELP5_Y302], the enrichment score was inactive: 0.521.

Regarding ILDEAYVMASV [EGFR_Y764], the enrichment score is inactive: 0.657.

EKLQKYFRKNP [EHHADH_Y682_Q685K_YF]: the enrichment score is inactive: 0.703.

For the molecule MMVGAYSTLEG [ECPAS_Y470], the enrichment score was inactive: 1.3.

Consider YLGRDYLETLM [DUS3L_Y610], for which the enrichment score was inactive: 1.07.

With IKNSGYISRYL [EIF2AK3_Y585], the enrichment score was inactive: 1.41.

Regarding FNVLQYVVPEV [EIF3A_Y382], the enrichment score was active: 6.99.

Regarding FGSVDCWEKFF [EEF1AKNMT_Y16_Y16C], the enrichment score was inactive: 1.54.

Consider QWQQLYDTLNA [EIF3M_Y351], for which the enrichment score was inactive: 0.816.

Turning to ADSLRYIYPKL [EIF2B3_Y92], the enrichment score was active: 6.01.

Regarding IRGNMYYENSY [EGFR_Y112], the enrichment score was inactive: 1.24.

Consider GKSHIYFWTLD [EML2_Y230_E235D], for which the enrichment score was inactive: 1.12.

For the molecule TNQVIYLNPPI [DYNC1H1_Y970], the enrichment score was inactive: 0.943.

GLPQTYCVSGP [DYSF_Y1684]: the enrichment score is inactive: 0.78.

For a further test, the target named is SHP2 N-SH2 domain wild-type. The description is as above. The note with it: peptide library: pTyr-Var.
For the molecule NPSFNYEIVNR [DYNC1H1_Y3379_YF], the enrichment score is inactive: 0.795.

In the case of INSLKYAFNIS [EIF2B5_Y583_YF], the enrichment score was inactive: 0.907.

As to GSERDYTYDEL [EIF2S2_Y174_E177D], the enrichment score was inactive: 0.364.

As to YADGVYLALEE [DUOX2_Y70_Q71L], the enrichment score was inactive: 0.855.

As to NPSYNYEIVNQ [DYNC1H1_Y3379_R3384Q], the enrichment score was inactive: 0.566.

As for YEPDAYDDLDQ [ELP5_Y302], the enrichment score is inactive: 0.654.

Regarding ILDEAYVMASV [EGFR_Y764], the enrichment score was inactive: 0.942.

On to EKLQKYFRKNP [EHHADH_Y682_Q685K_YF], for which the enrichment score was inactive: 0.778.

Take MMVGAYSTLEG [ECPAS_Y470]: the enrichment score is inactive: 0.873.

Turning to YLGRDYLETLM [DUS3L_Y610], the enrichment score was inactive: 1.

On to IKNSGYISRYL [EIF2AK3_Y585], for which the enrichment score is inactive: 1.15.

FNVLQYVVPEV [EIF3A_Y382]: the enrichment score is inactive: 2.05.

Take FGSVDCWEKFF [EEF1AKNMT_Y16_Y16C]: the enrichment score is inactive: 1.41.

As for QWQQLYDTLNA [EIF3M_Y351], the enrichment score is inactive: 0.883.

For ADSLRYIYPKL [EIF2B3_Y92], the enrichment score is inactive: 2.17.

For the molecule IRGNMYYENSY [EGFR_Y112], the enrichment score was inactive: 1.

Consider GKSHIYFWTLD [EML2_Y230_E235D], for which the enrichment score is inactive: 0.949.

For the molecule TNQVIYLNPPI [DYNC1H1_Y970], the enrichment score was inactive: 1.04.

As for GLPQTYCVSGP [DYSF_Y1684], the enrichment score is inactive: 1.01.
